Measurements: the supplement of paper PMC9446081
Among all 39,000 compounds or so, about 220 (0.56%) showed activity. The list shows a part of the results.

These compounds were tested on Escherichia coli K-12 BW25113 (assay: relative growth (OD600 normalised to plate interquartile mean) (fraction); higher = less growth inhibition, active = 0.2 or less). Conditions: 50 µM; LB; incubation time: overnight (16-24 h).
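Note: static incubation at 37 °C against the wild-type strain, values averaged over two biological replicates.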

Structure (SMILES)	relative growth
O=C(N/N=C/[C@H](O)[C@H](O)[C@@H](O)[C@@H](O)CO)c1ccccc1O	inactive: 0.987
COc1ccc(NC(=O)Nc2ccc3c(c2)C(=O)N([C@H](C)CO)C[C@H](C)[C@H](CN(C)S(=O)(=O)c2ccccc2)OCCCC[C@@H](C)O3)cc1	inactive: 1.03
C[C@H](CO)N1C[C@H](C)[C@H](CN(C)Cc2ccc(Cl)c(Cl)c2)Oc2ccc(NC(=O)NC3CCCCC3)cc2C1=O	inactive: 0.998
O=C1CN(/N=C/c2ccc([N+](=O)[O-])o2)C(=O)N1	active: 0.031
C[C@H](CO)N1C[C@H](C)[C@@H](CN(C)C(=O)Nc2ccc(C(F)(F)F)cc2)Oc2c(NC(=O)Nc3ccc4c(c3)OCO4)cccc2C1=O	inactive: 1.02
C[C@@H]1CN([C@H](C)CO)S(=O)(=O)c2ccc(C#Cc3ccc(F)cc3)cc2O[C@@H]1CN(C)C(=O)c1ccccn1	inactive: 1.03
Cc1noc(C)c1S(=O)(=O)N(C)C[C@H]1Oc2ccc(NS(=O)(=O)c3cn(C)cn3)cc2C(=O)N([C@@H](C)CO)C[C@H]1C	inactive: 0.961
Cc1noc(C)c1NC(=O)Nc1ccc2c(c1)CC(=O)N([C@H](C)CO)C[C@H](C)[C@H](CN(C)S(C)(=O)=O)O2	inactive: 0.97
COc1ccc(NC(=O)Nc2ccc3c(c2)C(=O)N([C@H](C)CO)C[C@H](C)[C@@H](CN(C)Cc2ccc4c(c2)OCO4)OCCCC[C@@H](C)O3)cc1	inactive: 1.01
C[C@@H]1CN([C@@H](C)CO)C(=O)c2cc(NS(=O)(=O)c3ccc(Cl)cc3)ccc2O[C@H]1CN(C)S(C)(=O)=O	inactive: 0.987
COc1ccc(S(=O)(=O)N2C[C@H](O)COC[C@@H]3O[C@H](CC(=O)NCCCN4CCOCC4)CC[C@H]32)cc1	inactive: 0.973
C[C@H](CO)N1C[C@H](C)[C@H](CN(C)Cc2ccc(C(=O)O)cc2)Oc2ccc(NS(=O)(=O)c3cn(C)cn3)cc2CC1=O	inactive: 1.01
CCOC(=O)C(CCc1ccccc1)NC(C)C(=O)N1Cc2ccccc2CC1C(=O)O (centres undefined)	inactive: 0.963
C[C@@H]1CN([C@@H](C)CO)C(=O)c2cccc(NC(=O)CCCCCC(=O)Nc3ccccc3N)c2O[C@H]1CN(C)S(=O)(=O)c1cn(C)cn1	inactive: 1
N=C1SCCN1CC(=O)O	inactive: 0.992
C[C@@H]1CN([C@@H](C)CO)C(=O)Cc2cc(NC(=O)CCCCCC(=O)Nc3ccccc3N)ccc2O[C@@H]1CN(C)Cc1ccc(Cl)c(Cl)c1	inactive: 0.952
N[C@@H](Cc1ccccn1)c1ccccc1	inactive: 0.969
Cc1noc(C)c1NC(=O)N(C)C[C@H]1Oc2ccc(NS(=O)(=O)c3cn(C)cn3)cc2C(=O)N([C@@H](C)CO)C[C@@H]1C	inactive: 0.996
COc1ccc(NC(=O)N(C)C[C@H]2OCc3ccccc3-c3c(n(C)c4ccccc34)C(=O)N([C@H](C)CO)C[C@H]2C)cc1	inactive: 0.985
O=C1CSC(=O)N1	inactive: 0.998

Structure (SMILES)	relative growth
C[C@H](CO)N1C[C@H](C)[C@H](CN(C)C(=O)Nc2ccc(F)cc2)Oc2ccc(NC(=O)Nc3ccc(C(F)(F)F)cc3)cc2CC1=O	inactive: 0.969
O=C(C[C@@H]1CC[C@@H]2[C@H](COC[C@H](O)CN2C(=O)Nc2ccc(F)cc2)O1)NCCCN1CCOCC1	inactive: 1.01
COc1ccc(S(=O)(=O)N(C)C[C@H]2OCCCC[C@H](C)Oc3ccc(NS(=O)(=O)c4cn(C)cn4)cc3C(=O)N([C@@H](C)CO)C[C@@H]2C)cc1	inactive: 1
C[C@H]1CN([C@@H](C)CO)C(=O)c2cc(NS(=O)(=O)c3ccccc3)ccc2O[C@@H]1CN(C)C(=O)Nc1cccc2ccccc12	inactive: 0.997
Cn1cnc(S(=O)(=O)N[C@H]2C=C[C@@H](CC(=O)N3CCN(c4ccccc4)CC3)O[C@H]2CO)c1	inactive: 1.02
COCCOC(=O)N1C(=O)[C@@]2(c3cc(C#CC4=CCCCC4)ccc31)[C@H](c1ccc(OCCO)cc1)N1[C@H](c3ccccc3)[C@H](c3ccccc3)OC(=O)[C@H]1[C@@H]2C(=O)N1CCc2cc(OC)c(OC)cc2C1	inactive: 1.04
C[C@H](CO)N1C[C@H](C)[C@H](CN(C)C(=O)c2cnccn2)Oc2cc(C3=CCCC3)ccc2S1(=O)=O	inactive: 0.983
NCCCCCCNC(=O)[C@H]1C[C@H]2C(=O)N[C@@H](CCCCN)C(=O)N2[C@H]1c1ccc(O)cc1	inactive: 1.01
CN(C)CCCN1C(=O)[C@@]2(Cc3ccccc31)c1ccccc1C(=O)N(C1CCCCC1)[C@H]2c1ccc(CO)cc1	inactive: 0.998
Cc1cn[nH]c1	inactive: 1.03
CCN1[C@@H]2c3ccc(-c4ccc(C(=O)N(C)C)cc4)c(=O)n3C[C@@H]2[C@@H](CO)[C@@H]1C(=O)NCCOC	inactive: 0.971
COc1ccccc1CNC(=O)C[C@@H]1C[C@H]2c3cc(NC(=O)C4CCOCC4)ccc3O[C@H]2[C@H](CO)O1	inactive: 0.975
Cc1ccc(S(=O)(=O)N2C[C@@H](O)COC[C@H]3O[C@@H](CC(=O)N[C@@H]4CCN(Cc5ccccc5)C4)CC[C@@H]32)cc1	inactive: 1.01
C[C@@H]1CCCCO[C@@H](CN(C)C(=O)Cc2ccccc2)[C@H](C)CN([C@@H](C)CO)C(=O)c2cc(NC(=O)Nc3ccccc3)ccc2O1	inactive: 1.02
C[C@@H](O)CN(CCN(C[C@@H](C)O)C[C@@H](C)O)C[C@@H](C)O	inactive: 1
CC(C)(C(=O)O)c1ccc(C(O)CCCN2CCC(C(O)(c3ccccc3)c3ccccc3)CC2)cc1.Cl (centres undefined)	inactive: 1.2
Cc1noc(C)c1NC(=O)Nc1ccc2c(c1)CC(=O)N([C@@H](C)CO)C[C@H](C)[C@H](CN(C)C(=O)Nc1cccc3ccccc13)O2	inactive: 1.01
C[C@H]1CCCCO[C@@H](CN(C)Cc2ccc(C(F)(F)F)cc2)[C@@H](C)CN([C@@H](C)CO)C(=O)c2cc(NS(C)(=O)=O)ccc2O1	inactive: 1
CNS(=O)(=O)c1ccc(Cl)c(C(N)=O)c1	inactive: 1.01
